# Data: the supplement of paper PMC3334620
# The full ranking holds about 33,000 sequences; the median of “E-score (-0.5 to 0.5)” is about -0.036, and the highest 2% start at about 0.37. Some of the results follow.
# Biological target: T1, Yer064c (UniProt P40041)
# T1 sequence: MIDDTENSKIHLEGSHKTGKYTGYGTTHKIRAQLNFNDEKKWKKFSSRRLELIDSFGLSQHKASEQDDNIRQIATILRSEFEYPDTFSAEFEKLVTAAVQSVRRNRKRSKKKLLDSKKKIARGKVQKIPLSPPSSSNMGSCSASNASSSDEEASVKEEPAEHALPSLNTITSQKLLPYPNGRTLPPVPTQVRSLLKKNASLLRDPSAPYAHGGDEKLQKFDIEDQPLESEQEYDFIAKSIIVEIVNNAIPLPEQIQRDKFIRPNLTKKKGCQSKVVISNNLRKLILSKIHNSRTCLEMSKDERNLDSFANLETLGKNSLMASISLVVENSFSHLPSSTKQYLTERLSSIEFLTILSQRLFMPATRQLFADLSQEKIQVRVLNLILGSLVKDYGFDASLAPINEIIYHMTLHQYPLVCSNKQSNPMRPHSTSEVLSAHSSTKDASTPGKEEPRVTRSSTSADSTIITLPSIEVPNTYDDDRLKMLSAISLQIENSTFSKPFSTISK
# Assay: PBM E-score (8-mer binding enrichment) (E-score (-0.5 to 0.5)); higher = stronger / more preferred TF binding; most listed sequences are background and not binding sites
# Conditions: protein concentration: 200 nM; construct: GST-full length
# Procedure: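 Universal 'all 10-mer' protein binding microarrays (Agilent AMADID 015681) probed with GST-tagged S. cerevisiae TFs (full-length or DBD) made by in vitro transcription/translation (PURExpress), about 100-200 nM. Bound TF was detected with fluorescent anti-GST. Each ungapped 8-mer (which stands for itself and its reverse complement) is scored by the PBM enrichment score (E-score), a modified Wilcoxon-Mann-Whitney statistic from -0.5 to +0.5, computed with the Universal PBM Analysis Suite. Scale: above 0.35 generally sequence-specific binding.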
row,Sequence,PBM E-score
1,GCACCTAC,-0.259
2,TAGACCAA,-0.179
3,GGATCCCA,-0.238
4,CAGTCAAG,0.267
5,AGGAGTAC,0.182
6,AATTTTAT,0.076
7,CACCATTC,-0.0769
8,ACCAATGA,0.137
9,AGTCCGAA,0.262
10,ATAGTTGG,0.0164
11,AATAAGAG,0.151
12,ACCGGGAC,-0.0673
13,GTGACGAA,-0.0798
14,CCCAAGGG,-0.291
15,TATGCTCA,-0.0042
16,ATGTCCAA,-0.202
17,TGCGTAAA,0.026
18,GCTGTGAA,-0.191
19,CCTTGCAA,-0.202
20,ACAGGTTA,-0.0305
21,CCCAACCA,0.0299
22,ATTCAAAC,0.219
23,ACGGGAGA,-0.123
24,AGTAGTCG,0.381
25,GTTCACCA,-0.191

row,Sequence,PBM E-score
1,AATTCATC,-0.162
2,AATGAGCA,-0.0702
3,AGCCCCAG,-0.108
4,GAAAACCC,-0.202
5,GCGAAGAC,0.126
6,CGTTCTTC,0.00303
7,CGGAAGTA,-0.153
8,GATAATAA,-0.0817
9,CGGGCATC,-0.154
10,GATATTGC,-0.325
11,CCCCACCG,-0.264
12,AGGTGCCG,-0.257
13,GCCGAAGC,-0.126
14,ATGCCCAG,-0.137
15,CGCTAAAC,0.0301
16,CAGTAAGC,-0.0247
17,CCGTAGAG,-0.209
18,AAGGCATT,-0.215
19,CCTTATTA,-0.192
20,AATTGACT,0.391
21,CCCCAGAG,-0.256
22,ACCCACTC,0.0711
23,AAAGGTGT,-0.235
24,CAGGACTC,0.344
25,CACGTACC,-0.0805

row,Sequence,PBM E-score
1,ATCGGCCA,-0.308
2,ACCAGCCA,-0.107
3,CGTGTCAC,0.042
4,GACGACGC,-0.226
5,ATACGTCA,-0.17
6,AGCGGTCG,-0.295
7,ACCTCCCA,-0.288
8,AAACTTGC,-0.178
9,ATGTTCTA,-0.248
10,GACTGACC,0.275
11,ACCCACAA,0.0505
12,AGAGCAGC,-0.168
13,CAACTCGG,-0.0505
14,TCCATTCA,0.0233
15,GGCTGCTA,-0.134
16,GCACTAGC,-0.322
17,CCGCCCTC,-0.226
18,GACCAATA,-0.0845
19,AGTGCCAT,-0.338
20,CCGTCGGA,-0.124
21,ACCATGCT,-0.138
22,CAAGTTTC,0.0574
23,CTAGCTGC,-0.0956
24,CCTGTCCG,-0.141
25,CGGGAGCC,-0.115

row,Sequence,PBM E-score
1,GTGCAAAC,-0.0612
2,GGAAGGCC,-0.372
3,CCTGCTTC,-0.33
4,CATATGCA,-0.0759
5,GTGTAGCA,-0.126
6,ACCCAAAG,-0.00336
7,CAAGAGTG,-0.108
8,AGCTTAGA,-0.00982
9,AGGTGATA,-0.16
10,CGTCAACA,-0.189
11,AGCTTACT,0.0931
12,TACGAAGA,0.154
13,ACATATTG,-0.0214
14,AAGGCAGC,-0.125
15,CCAGAAAG,0.0675
16,CACCCGGG,-0.0964
17,CAGCAACA,-0.0296
18,CCGGGCAC,-0.312
19,AGGCACCC,-0.187
20,ATCAATCG,0.193
21,CGATGGTC,-0.0168
22,CCTTGTAG,-0.14
23,ATTCGGAG,-0.0919
24,CATAATGA,0.214
25,GGGCCCGA,-0.142

row,Sequence,PBM E-score
1,CTCTCAAG,0.0339
2,ATTGTGCA,0.1
3,GAAGTCAC,0.433
4,AGCTCTTC,-0.222
5,TATTTACA,0.0598
6,CTCCCCCC,-0.162
7,ATCGACTG,0.0775
8,CTTTTCGC,-0.0382
9,TCAAAACA,0.141
10,CCTGCCAC,-0.0676
11,TCCGACAA,-0.00562
12,CGGGTGAG,0.241
13,TATAAGAA,-0.0094
14,AATTTGTC,-0.0536
15,ATGCTCTA,-0.117
16,CTTATAAG,0.0499
17,GAATGAAA,0.00846
18,CGGTGTCA,-0.0881
19,ACTAGATG,0.104
20,AAAGCTCC,-0.0457
21,AACACTCC,-0.16
22,AACGGGTG,-0.163
23,CCCCGGCG,-0.0864
24,ACCCGCTG,0.0478
25,CTCCGACC,-0.105

row,Sequence,PBM E-score
1,AGCTAAGC,-0.158
2,CAACTCCG,-0.12
3,AACGTAGA,-0.157
4,CTCTTGCC,-0.0899
5,ATCCGCAA,0.0373
6,AAACGGGC,-0.206
7,TCACTCAA,0.24
8,AAGTATGC,-0.00132
9,ATATTTCG,0.043
10,GCTTACCC,-0.176
11,ATGCCGTC,-0.274
12,GCTTAATA,-0.0966
13,ATGGTCTG,-0.0695
14,CATTCGAA,0.0908
15,ATTCGTTG,0.0655
16,GATGTAAC,-0.124
17,GATGGGAC,-0.082
18,AAATTCCG,-0.167
19,TGCCGGAA,-0.213
20,GATCCACA,0.103
21,GCTGTTTA,0.0015
22,TCACACCA,0.218
23,ACACTATC,0.0106
24,GACGACTA,0.415
25,AGCCGGTC,-0.159

row,Sequence,PBM E-score
1,CCTCTCCA,-0.0377
2,CAGAATGC,0.00391
3,GCCCACGC,-0.348
4,CGTCTTCA,-0.115
5,ACGGGTGA,0.0366
6,ACGAGTCA,0.48
7,AAATGTAC,-0.0779
8,CATAATTC,0.0347
9,AGTGATCC,0.12
10,TAAACTAA,0.195
11,CGAAGAAA,-0.131
12,CCGGGAGA,-0.0645
13,GTCTTAAC,0.192
14,CAATTTAC,-0.0386
15,CCCCAGTA,-0.19
16,ATAGGCTC,-0.167
17,CCAAGAGC,-0.229
18,CCGAAACG,-0.169
19,CGTAGTGC,-0.148
20,GATATGCC,-0.329
21,CGAGAACA,0.0131
22,CAGATAGA,0.0714
23,CCGAGCAA,-0.287
24,CCGTGGTC,-0.172
25,GGAAGCCA,-0.0486

row,Sequence,PBM E-score
1,CCGCACCA,0.017
2,AGTATAGA,0.128
3,AAGACAAT,-0.0159
4,CCTTCTAC,-0.317
5,AATGTACG,-0.329
6,ACAGTTCC,-0.0135
7,CGCGGCCG,-0.137
8,GTGCTTCA,-0.00796
9,CTTCTTGC,-0.185
10,ACGCCCCA,-0.159
11,ACACTGGC,0.172
12,CGCCAGCC,-0.276
13,GGGAAGCA,-0.383
14,CGGCGGAC,-0.166
15,TACAGAGA,-0.169
16,CGTTCCAG,-0.241
17,ACTTGGGG,-0.191
18,GCAACTGC,-0.0982
19,CCAGAGAA,-0.0846
20,AATGCCCA,-0.0865
21,GCCCATTA,-0.0541
22,ATCTCGGC,-0.00132
23,ACAATAAG,-0.00139
24,GACAAACC,-0.0461
25,CAAAAAAC,0.079

row,Sequence,PBM E-score
1,CTGGTATA,-0.118
2,TATTGCGA,0.0167
3,ACCGAGTA,-0.0874
4,TCCCGCCA,-0.196
5,GGCTTATA,-0.184
6,CTATTTAC,-0.0226
7,AATCACGC,0.391
8,ATTGGGCG,-0.166
9,GAGCTGAA,-0.0826
10,ATATATTG,-0.0832
11,CGAGAGAC,0.0137
12,CAATCCGC,-0.104
13,AATGCAAG,0.0671
14,CGTCTCAC,-0.0322
15,CGTAGGTC,-0.0734
16,TGGTAAAA,0.0782
17,ACTAAGAT,0.338
18,GCGAGTGA,0.106
19,AACATCAA,0.0691
